In all, about 310,000 compounds went through this assay and about 14,000 (4.5%) showed an effect of 50% or more. Effects have a minus sign here. This is one part of the list.
target: human ether-à-go-go-related gene (hERG) potassium channel (human, UniProt Q12809); assay: primary screen, population patch clamp on CHO cells stably expressing hERG
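Further: peak tail current of the secondary pulse compared with the same well before compound.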

Chain of human ether-à-go-go-related gene (hERG) potassium channel (Q12809 whole entry, looked up): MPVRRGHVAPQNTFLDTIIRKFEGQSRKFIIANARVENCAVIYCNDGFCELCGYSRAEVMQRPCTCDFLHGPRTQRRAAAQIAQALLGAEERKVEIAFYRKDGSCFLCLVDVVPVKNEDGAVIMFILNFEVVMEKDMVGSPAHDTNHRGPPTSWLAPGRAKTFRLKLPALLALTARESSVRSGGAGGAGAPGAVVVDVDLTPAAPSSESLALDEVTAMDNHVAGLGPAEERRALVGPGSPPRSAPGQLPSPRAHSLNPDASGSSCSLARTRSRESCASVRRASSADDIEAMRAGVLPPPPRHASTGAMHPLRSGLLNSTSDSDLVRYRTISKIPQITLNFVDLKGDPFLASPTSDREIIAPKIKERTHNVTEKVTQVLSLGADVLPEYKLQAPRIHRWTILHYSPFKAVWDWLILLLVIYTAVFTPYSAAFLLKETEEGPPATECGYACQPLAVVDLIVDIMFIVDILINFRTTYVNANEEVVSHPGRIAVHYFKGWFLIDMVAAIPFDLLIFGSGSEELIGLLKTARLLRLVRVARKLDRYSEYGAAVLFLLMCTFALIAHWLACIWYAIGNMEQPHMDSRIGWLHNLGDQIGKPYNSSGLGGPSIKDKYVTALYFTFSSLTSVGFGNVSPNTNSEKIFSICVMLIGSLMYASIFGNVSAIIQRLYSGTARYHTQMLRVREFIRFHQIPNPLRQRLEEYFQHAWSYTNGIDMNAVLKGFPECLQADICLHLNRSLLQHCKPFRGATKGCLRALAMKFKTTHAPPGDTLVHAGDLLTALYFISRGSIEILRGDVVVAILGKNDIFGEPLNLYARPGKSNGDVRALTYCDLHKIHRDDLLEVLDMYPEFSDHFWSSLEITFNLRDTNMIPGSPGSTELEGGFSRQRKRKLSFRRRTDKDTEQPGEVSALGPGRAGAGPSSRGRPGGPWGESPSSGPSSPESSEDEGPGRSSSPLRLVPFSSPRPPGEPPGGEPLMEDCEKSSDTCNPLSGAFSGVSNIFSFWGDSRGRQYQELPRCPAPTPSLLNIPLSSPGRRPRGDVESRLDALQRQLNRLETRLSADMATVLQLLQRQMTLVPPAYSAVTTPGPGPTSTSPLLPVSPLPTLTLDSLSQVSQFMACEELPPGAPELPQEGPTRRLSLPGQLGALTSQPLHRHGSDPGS

| Structure (SMILES) | hERG current change (%, negative = inhibition) at 10uM |
| --- | --- |
| O=C(c1ccc(N2C(=O)C3C4c5ccccc5C(c5ccccc54)C3C2=O)cc1)N1CCOCC1 (stereo not shown) | 2.25% |
| Cc1ccc(-n2[nH]c(C)c(/C=N/c3ccccn3)c2=O)cc1 | 2.58% |
| COc1ccc(/C=N/NC(=O)c2ccc(O)cc2O)cc1CSc1ccccn1 | 0.136% |
| CCc1ccccc1NC1=NCC(=O)N1C1CCCCC1 | -1.39% |
| Cn1c(CSCC(=O)Nc2ccccc2)nnc1SCc1ccccc1 | -6.94% |
| Cc1[nH]c(C)c(S(=O)(=O)NCc2ccco2)c1C(=O)N1CCCCC1 | 7.16% |
| O=C(N/C(=C/c1cccnc1)C(=O)N1CCOCC1)c1ccccc1F | -1.08% |
| Cc1cc(C)c(S(=O)(=O)N2CCN(c3ccccc3)CC2)c(C)c1 | 16.5% |
| S=c1[nH]nc(-c2ccccc2Cl)n1Cc1ccccc1 | 7.24% |
| COc1ccccc1CNC(=O)C(=O)NCC1OCCN1S(=O)(=O)c1ccccc1 (stereo not shown) | 0.173% |
| COc1ccc(-n2nc(C(=O)NCC(=O)NC3CCCC(C)C3C)c3ccccc3c2=O)c(OC)c1 (stereo not shown) | 12.8% |
| CN1C2C=C(N(CCc3ccccc3)C(=O)c3ccc(Cl)cc3)CC1CC2.Cl (stereo not shown) | -74.8% |
| O=C(c1ccco1)N1CCN(S(=O)(=O)c2cccs2)CC1 | -22.8% |
| CCOc1ccc(NC(=O)CN(C)C(=O)Cn2c(=O)cnc3ccccc32)cc1OCC | 19.7% |
| Cc1cc(C)n2nc(SCC(=O)N(C)c3ccccc3)nc2n1 | 8.2% |
| Cc1cc([N+](=O)[O-])ccc1NC(=O)/C=C/c1cccs1 | -12.8% |
| CN(C)S(=O)(=O)c1ccccc1C#N | -4.08% |
| CCc1nc2ccccc2c(=O)n1NCCc1ccccc1 | -21.2% |
| CCOC(=O)CSc1nc2ccccc2c(=O)n1CC(C)C | -35.3% |
| Cc1ccnc(NC(=O)c2ccc(S(=O)(=O)N3CCCCCC3)cc2)c1 | 6.28% |
| COc1cccc(/C=N/NC(=O)C(=O)N2CCCCCC2)c1OC | 3.52% |
| O=C(Nc1cccc(C(F)(F)F)c1)c1cc(-c2cccs2)on1 | 3.81% |
| CCCCN(C(=O)c1ccc(N2CCCC2=O)cc1)c1c(N)n(CCC)c(=O)[nH]c1=O | 11.6% |
| CCc1[nH]nc2c1C(c1cccnc1)C(C#N)=C(N)O2 (stereo not shown) | -5.55% |
| CCC1CCCCN1C(=O)CSc1nnc2nc(C)cc(C)n12 (stereo not shown) | 5.26% |

From PMC4336329 (PLoS ONE, 2015)
